The campaign covered roughly 370,000 compounds. About 150 (0.041%) were called active. This list was built around the results that the source calls inconclusive (neither active nor inactive); the mix of calls is not that of the screen. Calls come from the whole dose curve; as a rule, active = well fitted inhibition curve with a large enough effect; inconclusive = small, poorly fitted or top-dose-only effect; inactive = flat fitted curve, though single readings scatter. No potency is given beside an inconclusive call; the fits are too rough.
The molecules below were run against Beta-lactamase (Escherichia coli (strain K12)) (UniProt P00811) (assay: qHTS Inhibitors of AmpC Beta-Lactamase (assay with detergent)). Details: AmpC hydrolysis of nitrocefin, absorbance 480 nm, 0.01% Triton; activity change, negative = inhibition: at 114 µM (top of the series).
Method in brief: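 AmpC (5.3 nM in the dispensed reagent) in 20 mM phosphate pH 7.0 with 0.01% (detergent screen) or 0.0001% Triton X-100 was preincubated with compounds for 15 min at room temperature. Nitrocefin was then added from an 800 uM solution, and hydrolysis was followed at 480 nm.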
Note: nearly all actives have a fitted effect of over 25% in size.
Potency is the fitted concentration of half-maximal effect; tags give direction and shape of the fitted curve.
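Throughout, for activity change, negative = inhibition: 0% = no-compound wells and -100% = no-enzyme wells.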

UniProt P00811, sequence (P00811 whole entry, looked up): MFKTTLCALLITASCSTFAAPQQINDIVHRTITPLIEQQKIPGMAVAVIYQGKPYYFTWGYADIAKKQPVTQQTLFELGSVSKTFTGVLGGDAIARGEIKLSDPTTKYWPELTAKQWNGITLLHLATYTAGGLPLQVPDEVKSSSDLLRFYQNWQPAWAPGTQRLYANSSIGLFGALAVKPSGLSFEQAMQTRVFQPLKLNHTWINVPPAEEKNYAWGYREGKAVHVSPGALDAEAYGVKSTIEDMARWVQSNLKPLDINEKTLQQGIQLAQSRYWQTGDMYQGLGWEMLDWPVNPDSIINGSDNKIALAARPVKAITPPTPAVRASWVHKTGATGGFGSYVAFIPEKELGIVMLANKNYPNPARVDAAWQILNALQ

Compound | Potency | activity change, negative = inhibition
COC(=O)c1ccc(CSc2nnc(Nc3cccc(OC)c3)s2)o1 | inconclusive [inhibitor, full curve, poor fit] | 
O=C(CSc1nccn1Cc1ccc(F)cc1)Nc1ccc2c(c1)OCCO2 |  | inactive: 0.756%
CCN1C(=O)CC(N2CCC(Nc3ccc(OC)cc3)CC2)C1=O (configuration not stated) |  | inactive: -0.103%
COc1cc2ncnc(NCc3ccc4c(c3)OCO4)c2cc1OC |  | inactive: 2.24%
CC1=Nc2cc(C(=O)O)ccc2Sc2ccc(Br)cc21 | inconclusive [inhibitor, full curve, poor fit] | 
Clc1ccccc1C1CC(c2ccccc2)Nc2ncnn21 (configuration not stated) | inconclusive [inhibitor, full curve, poor fit] | 
COC(=O)c1ccc(OS(=O)(=O)N(C)C)cc1 | inconclusive [inhibitor, full curve] | 
COc1ccc(NC(=O)CN(C)C(=O)c2cc(-c3cccs3)nn2-c2ccccc2)cc1 | inconclusive [inhibitor, full curve, poor fit] | 
Cc1nc2ccc(N=NC3=C(O)CCCC3=O)cc2s1 | inconclusive [inhibitor, partial curve] | 
O=C(Nc1ccncc1)c1cncc(Br)c1 |  | inactive: -1.19%
O=C(CSc1ccc(Cl)cc1)NNC(=O)c1ccncc1 | inconclusive [inhibitor, partial curve] | 
CCn1c2ccccc2c2cc(NC(=O)c3ccc(C)c([N+](=O)[O-])c3)ccc21 | inconclusive [inhibitor, partial curve] | 
CCOC(=O)c1c(C)[nH]c(C(=O)COC(=O)/C=C/c2ccc(OC(F)F)cc2)c1C |  | inactive: 0.451%
O=C(Nc1ccccc1Cl)NC1(C(=O)NCc2ccncc2)CCCCC1 | inconclusive [inhibitor, single point] | 
O=C(Cn1nc(-c2cccc(Cl)c2)ccc1=O)Nc1cccnc1 | inconclusive [inhibitor, partial curve, poor fit] | 
Cc1ccc(C)c(NC(=O)CN(C)C(=O)CN2C(=O)C3CCCCC3C2=O)c1 (configuration not stated) |  | inactive: -15.3%
CCCC(=O)NCCCc1nc2ccccc2n1CC | inconclusive [inhibitor, partial curve] | 
CC(=O)N1c2c(cc(Br)cc2S(=O)(=O)NCc2ccc(C)cc2)CC1C (configuration not stated) | inconclusive [inhibitor, full curve, poor fit] | 
Cc1ccccc1Cn1ccc(NC(=O)c2cnn3c2NC(c2ccccc2)CC3C(F)(F)F)n1 (configuration not stated) | inconclusive [inhibitor, full curve, poor fit] | 
COC(=O)C1=C(C)NC(C)=C(C(=O)OC)C1C(=O)OC1CCCCC1=O (configuration not stated) | inconclusive [inhibitor, full curve, poor fit] | 
CC(=O)Nc1ccc(C(=O)OCC(=O)NCc2ccccc2)cc1 |  | inactive: -0.845%
COc1ccc(/C=C/C(=O)N(C(C)C)C(C)C)cc1Br |  | inactive: -2.04%
COc1ccc(C(C)C)cc1S(=O)(=O)NCCc1c(C)[nH]c2ccc(C)cc12 |  | inactive: 6.78%

Compound | Potency | activity change, negative = inhibition
CCN1CCN(CC(=O)Nc2cc(C)on2)CC1 | inconclusive [inhibitor, partial curve] | 
COC(=O)c1cc(NC(=O)c2cc(C)oc2C)cc(C(=O)OC)c1 | inconclusive [inhibitor, single point] | 
O=C(Nc1cccn2ncnc12)c1cccc(C(F)(F)F)c1 | inconclusive [inhibitor, full curve, poor fit] | 
CCOc1ccc(-c2noc(CCC(=O)NC)n2)cc1OCC | inconclusive [inhibitor, partial curve, poor fit] | 
CCc1ccc2nc(N(CCCN(C)C)C(=O)c3ccc(C(=O)c4ccccc4)cc3)sc2c1 |  | inactive: 5.69%
CCOc1ccccc1-c1c2cc(O)c(=O)cc-2oc2cc(O)c(O)cc12 | inconclusive [inhibitor, single point] | 
O=C(CC(SCc1ccco1)c1ccc(O)cc1)c1cccs1 (configuration not stated) |  | inactive: -8.09%
CC1Cc2ccccc2N1C(=O)Cn1nnc(-c2ccccc2NC(=O)C2CCC2)n1 (configuration not stated) | inconclusive [inhibitor, partial curve, poor fit] | 
COc1ccc(Nc2cc(O)c3ncccc3c2)cc1 | inconclusive [inhibitor, full curve, poor fit] | 
COC(=O)c1ccc(N=NN2CCCCCC2)cc1 | inconclusive [inhibitor, full curve, poor fit] | 
CC(Oc1ccc(Cl)cc1Cl)C(=O)N/N=C1\CCCc2ccccc21 (configuration not stated) | inconclusive [inhibitor, partial curve, poor fit] | 
O=C(Oc1ccc2ccc(OC(=O)N3CCCCCC3)cc2c1)N1CCCCCC1 | inconclusive [inhibitor, single point] | 
Clc1ccccc1-c1ncc2ccccn12 | inconclusive [inhibitor, full curve, poor fit] | 
Cc1nnsc1NC(=O)OCCCl | inconclusive [inhibitor, partial curve] | 
COC(=O)c1ccccc1S(=O)(=O)Nc1ccc(OC)nc1 | inconclusive [inhibitor, full curve, poor fit] | 
CCCCC(C(=O)NC1CCCC1)N(C(=O)c1snc(C(N)=O)c1N)c1ccc(F)cc1 (configuration not stated) |  | inactive: 2.55%
Cc1nc(C)c(C(=O)C2=C(O)C(=O)N(CCN3CCOCC3)C2c2ccco2)s1 (configuration not stated) | inconclusive [inhibitor, full curve] | 
CC(=O)Nc1ccc(C(=O)Nc2ccc(S(=O)(=O)Nc3nccc(C)n3)cc2)cc1 | inconclusive [inhibitor, full curve] | 
COc1ccc(N(CC(=O)Nc2ccccc2Cl)S(=O)(=O)c2ccc(C)cc2)cc1OC | inconclusive [inhibitor, full curve, poor fit] | 
Cc1ccc(SCCC(=O)N2CCC(C)CC2)cc1 |  | inactive: -5.31%
Cc1nn(C)c(C)c1CNC(=O)Nc1ccc2c(c1)OCO2 |  | inactive: 0.453%
O=C(NCC1CCCO1)c1cc([N+](=O)[O-])ccc1N1CCC(Cc2ccccc2)CC1 (configuration not stated) | inconclusive [inhibitor, full curve, poor fit] | 
Cc1nnc(NS(=O)(=O)c2ccc(N)cc2)s1 | inconclusive [inhibitor, partial curve] | 

Compound | Potency | activity change, negative = inhibition
Cn1c(=O)oc2cc(S(=O)(=O)N3CCCC(C(=O)NCC4COc5ccccc5O4)C3)ccc21 (configuration not stated) | inconclusive [inhibitor, full curve] | 
Cc1nc2c(c(=O)n1CCC(C)C)c1nc3ccccc3nc1n2Cc1ccc2c(c1)OCO2 | inconclusive [inhibitor, full curve, poor fit] | 
S=c1[nH]nc(-c2ccccc2)n1Cc1ccccc1 | inconclusive [inhibitor, single point] | 
Cc1ccc(C(=O)NCC(c2cccs2)S(=O)(=O)c2cccs2)cc1 (configuration not stated) |  | inactive: 4.24%
Cc1ccc(C)c(S(=O)(=O)Nc2ccc(C(=O)NCC(c3ccco3)N(C)C)cc2)c1 (configuration not stated) | inconclusive [inhibitor, full curve, poor fit] | 
Cc1cccc(C)c1NC(=S)NNc1ncc(C(F)(F)F)cc1Cl | inconclusive [inhibitor, single point] | 
CCOC(=O)C(C)Sc1nc(-c2ccc(OC)cc2)nc2c1c(=O)n(C)c(=O)n2C (configuration not stated) | inconclusive [inhibitor, full curve] | 
CCOC(=O)N1CCc2c(sc3c2c(=O)n(-c2ccc(CC)cc2)c(=O)n3CC(=O)c2ccc(F)cc2)C1 |  | inactive: 7.75%
O=C(c1cc2ncc(Br)cn2n1)N1CCCCC1 | inconclusive [inhibitor, single point] | 
O=C(Nc1ccnn1C1CCN(Cc2cccc(OCCO)c2)CC1)C1CCOC1 (configuration not stated) |  | inactive: 1.76%
CN(c1ccccc1)S(=O)(=O)c1cccc(NS(=O)(=O)c2cccc(C(=O)O)c2)c1 | inconclusive [inhibitor, full curve, poor fit] | 
Cc1ccc(NC(=O)N2CCC(NC(=O)c3ccco3)CC2)cc1 | inconclusive [inhibitor, full curve] | 
C/C=C/C=C/C(=O)Nc1nccs1 |  | inactive: -5.68%
COC(=O)COc1cccc(NC(=O)COc2ccccc2)c1 | inconclusive [inhibitor, full curve] | 
CC(=O)c1ccc(NC(=S)N2CCCC(CO)C2)cc1 (configuration not stated) | inconclusive [inhibitor, partial curve] | 
O=C(Nc1ccnn1C1CCN(Cc2cccc(O)c2)CC1)C1CCCC1 | inconclusive [inhibitor, full curve, poor fit] | 
O=C(CCC(=O)N1CCOCC1)NCc1cccc(C(F)(F)F)c1 | inconclusive [inhibitor, full curve, poor fit] | 
CC(C)N(Cc1cc2ccccc2[nH]c1=O)C(=O)C1CCCCC1 | inconclusive [inhibitor, single point] | 
COCCNC(=S)N/N=C/c1ccc(N2CCOCC2)cc1 | inconclusive [inhibitor, full curve, poor fit] | 
Cc1ccc(C2c3c(oc4ccccc4c3=O)C(=O)N2c2nnc(C(C)C)s2)o1 (configuration not stated) | inconclusive [inhibitor, full curve, poor fit] | 
CCOC(=O)c1cc(OC(=O)c2cc(OC)cc(OC)c2)n(-c2ccccc2)n1 | inconclusive [inhibitor, single point] | 
